SMILES strings stand for the structures. In all, about 110,000 compounds were measured (“z-score”: median about -0.1, highest 2% from about 2 on). Some of the results follow. Calls of active or inactive are those of the source.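 The calls were made as follows: active = z-score in the third read window above 3 or below -3; inactive = the rest.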

The target of this test is Metabotropic glutamate receptor 8 (Rattus norvegicus) (UniProt P70579). Briefly: rat mGluR8 modulators via GIRK flux, primary screen, cell-based, thallium flux, HTS (AID 488969). As to conditions: HEK293 rat mGluR8, GIRK (G protein-gated inwardly rectifying potassium channel) thallium flux, FluoZin2; at 10 µM; stronger effect = higher value; submaximal glutamate (EC20) added with thallium.
Sequence of UniProt P70579 (P70579 whole entry, looked up): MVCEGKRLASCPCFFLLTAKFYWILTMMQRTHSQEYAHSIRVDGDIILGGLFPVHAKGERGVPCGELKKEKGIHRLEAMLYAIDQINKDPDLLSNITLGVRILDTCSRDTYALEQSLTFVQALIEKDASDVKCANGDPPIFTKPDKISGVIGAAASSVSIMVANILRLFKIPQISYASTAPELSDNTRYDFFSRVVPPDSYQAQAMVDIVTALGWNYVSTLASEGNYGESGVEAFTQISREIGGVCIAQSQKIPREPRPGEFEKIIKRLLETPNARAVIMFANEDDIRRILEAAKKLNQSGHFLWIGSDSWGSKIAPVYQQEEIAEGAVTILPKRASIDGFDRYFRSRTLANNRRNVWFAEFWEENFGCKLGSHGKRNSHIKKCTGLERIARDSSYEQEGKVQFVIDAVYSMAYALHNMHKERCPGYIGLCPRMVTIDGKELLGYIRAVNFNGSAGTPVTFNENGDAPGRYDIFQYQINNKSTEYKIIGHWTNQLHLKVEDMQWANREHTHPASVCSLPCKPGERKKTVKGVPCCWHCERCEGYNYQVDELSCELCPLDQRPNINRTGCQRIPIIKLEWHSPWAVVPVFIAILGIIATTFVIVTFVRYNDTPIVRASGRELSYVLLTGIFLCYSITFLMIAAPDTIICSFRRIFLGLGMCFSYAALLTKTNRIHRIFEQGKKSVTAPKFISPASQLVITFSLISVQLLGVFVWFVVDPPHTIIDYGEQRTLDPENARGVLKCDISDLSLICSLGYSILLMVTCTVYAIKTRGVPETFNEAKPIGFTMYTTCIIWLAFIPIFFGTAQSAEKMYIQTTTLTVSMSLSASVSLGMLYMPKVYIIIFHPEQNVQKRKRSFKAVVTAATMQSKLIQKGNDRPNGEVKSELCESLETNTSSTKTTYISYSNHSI
`CSc1cc(-c2ccc(Cl)cc2)c(C(=O)NC(C)C)s1` showed a z-score of 0.153.

For `CN(C)S(=O)(=O)n1ccnc1`, the z-score was -0.165.

The compound `Cc1ccc(OCC(=O)N/N=C/c2cn(Cc3ccccc3)c3ccccc23)cc1` returned a z-score of -0.188.

`O=C1c2ccccc2C(=O)C12OC(c1ccccc1)C1(C(=O)c3ccccc3C1=O)C2c1ccc([N+](=O)[O-])cc1` (configuration not stated) displayed a z-score of -0.669.

In turn, `Cc1ccccc1NC(=O)C1CCCN(S(=O)(=O)c2cccc3cccnc23)C1` (configuration not stated) displayed a z-score of -0.135.

In the case of `COc1ccccc1CNC(=O)c1ccc(OCc2c(C)noc2C)c(OC)c1`, the z-score was -0.41.

As for `Clc1ccc(COn2c(-c3ccc(Cl)cc3)nc3ccccc32)cc1`, the z-score is -0.0881.

With `CC1CC(C)CN(C(=O)Cn2c(=O)n(CCCCC(=O)NCc3ccco3)c(=O)c3ccccc32)C1` (configuration not stated), the z-score is -0.706.

With `COCCn1c(SCC(=O)Nc2cc(C(C)(C)C)nn2-c2ccccc2)nc2ccccc2c1=O`, the z-score is -0.146.

`CCN(Cc1cc2cc(OC)ccc2[nH]c1=O)C(=O)c1ccncc1` registered a z-score of 0.126.

On to `O=C(Oc1c(Cl)cc(Cl)c2ccccc12)N1CCCC1`, for which the z-score was determined as 0.469.

Regarding `COC(=O)C1CCN(Cc2ccc(C)cc2)CC1`, the z-score is -0.135.

In turn, `Cc1ccc(CN2C(=O)CCC2C(=O)NCCN2CCOCC2)cc1` (configuration not stated) came in with a z-score of 0.553.

`COC(=O)c1ccccc1NC(=O)Cn1nc(C(F)(F)F)c2c1CCC2` came in with a z-score of -0.437.

Consider `O=C1NC(c2ccc(Br)cc2)Nc2sc3c(c21)CCC3` (configuration not stated), for which the z-score is 0.88.

For the compound `CN(C)/C=N/c1sc2c(c1C#N)CCC2`, the z-score stood at 0.085.

For the compound `Cc1ccccc1OCCn1cc(/C=C(\C#N)C(=O)NCc2ccco2)c2ccccc21`, the z-score was 0.191.

In the case of `CC(=O)c1ccc(NC(=O)CSCC(=O)Nc2ccc3ccccc3c2)cc1`, the z-score was -0.558.

In turn, `O=C(CN1CCCC1)Nc1ccc(NC(=O)Nc2ccccc2Cl)cc1` registered a z-score of 0.133.

With `Clc1ccc(/C=N/Nc2nnc(Cl)c3ccccc23)cc1`, the z-score was 0.242.

Compound `OCCCN1CCN(CCCOc2ccccc2-c2ccccc2)CC1` registered a z-score of -0.686.

With `CC(C)CNC(=O)CCCc1ccccc1`, the z-score is -0.288.

`O=C(Nc1cnc2sccn2c1=O)c1ccc(Cl)cc1Cl` showed a z-score of -0.557.

As to `CCN(CC)CCNC(=O)c1ccc(Cl)c(S(=O)(=O)Nc2ccccc2OC)c1`, the z-score is 0.323.

Turning to `O=C(/C=C/c1c[nH]c2ccccc12)c1ccccc1`, the z-score was -0.249.

With `Cc1ccc(C)c(NC(=O)CN(C)S(=O)(=O)c2ccc(F)cc2)c1`, the z-score is -0.249.

In the case of `CCC(Sc1nccn1C)C(=O)Nc1nnc(C)s1` (configuration not stated), the z-score amounted to 0.19.

`O=C(Nn1c(-c2ccc(F)cc2)nc2ccccc2c1=O)C1CCCCC1`: the z-score was -0.0877.

The compound `O=C(CN1C(=O)C2C3C=CC(C3)C2C1=O)N1CCc2ccccc2C1` (configuration not stated) registered a z-score of 0.165.

`C=C(C)CNC(=S)Nc1nc2c(cc1C(=O)OCC)CCCC2`: the z-score was active: 3.56.

Compound `O=C(CN1CCc2ccccc2C1)Nc1ccccc1N1CCCCCC1` yielded a z-score of -0.0328.

`CC1CCN(C(=O)c2cc3ccccc3c(=O)o2)CC1`: the z-score was -0.113.

For `O=C1C=C(NCc2ccccc2)CCC1`, the z-score is -0.0868.

Consider `COc1ccc(-n2nnnc2SCC#CCO)cc1`, for which the z-score was 1.38.

In the case of `C/C(=N\NC(=O)c1csc(C)c1C)c1ccc(Cl)s1`, the z-score was active: 3.54.

As for `O=C(CSc1ncnc2c1oc1ccccc12)Nc1ccccc1F`, the z-score is -0.443.

Consider `CC(C)CC(=O)c1c[nH]c(C(=O)NCc2cccs2)c1`, for which the z-score came to 0.0742.

The compound `FC(F)Oc1ccc(NC(=S)NCC2COc3ccccc3O2)cc1` (configuration not stated) had a z-score of -0.143.

In the case of `O=C(CC12CC3CC(CC(C3)C1)C2)NCC(=O)N1CCCC1`, the z-score was 0.463.

Take `O=C(COc1ccccc1)N1CCN(c2ccc([N+](=O)[O-])c(N3CCCCC3)c2)CC1`: the z-score was -2.37.

Take `CC1CN(S(=O)(=O)c2cccc(C(=O)OCc3cc(=O)oc4cc(O)ccc34)c2)CC(C)O1` (configuration not stated): the z-score is -0.0274.

Turning to `CCCN1CCC(NC(=S)Nc2ccc(C(=O)OCC)cc2)CC1`, the z-score was -0.26.

With `COc1ccc(C(=O)C2C(c3ccc(-c4ccccc4[N+](=O)[O-])o3)NC(=O)NC2(O)C(F)(F)F)cc1` (configuration not stated), the z-score is -2.8.

Compound `CCc1cccc(CC)c1N1C(=O)c2cc(N3CCOCC3)c([N+](=O)[O-])cc2C1=O` came in with a z-score of 0.0545.

Consider `CC(C)N(Cc1ccccc1)C(=O)c1cnc2n(c1=O)CCS2`, for which the z-score is 0.707.

On to `O=C(Nc1ccc(Cc2ccncc2)cc1)c1ccco1`, for which the z-score is 0.429.

As to `Cc1nnc(SCc2ccc(F)cc2Cl)s1`, the z-score is -0.295.

Take `CC(=O)C1C(c2ccc(F)cc2)NC(=O)NC1(O)C(F)(F)F` (configuration not stated): the z-score is -0.0816.

The compound `Cc1ccc(NC(=O)CCSc2nnc(Cc3ccccc3)o2)cc1` had a z-score of 0.339.

`CC12CCC(C(=O)N3CCCCCC3)(OC1=O)C2(C)C` (configuration not stated) registered a z-score of -0.477.

In turn, `CCC(OC(=O)c1ccco1)C(=O)NCc1ccco1` (configuration not stated) registered a z-score of 0.119.

Regarding `O=C(NCCCn1ccnc1)c1cc(C(=O)C2CC2)c[nH]1`, the z-score was -0.343.

Consider `COCCN1Cc2cccc(C(=O)Nc3cccc(OC)c3)c2C1=O`, for which the z-score is -0.444.

As to `Cc1ccc2cc(C(c3nnnn3Cc3ccccc3)N3CCN(c4ccccc4)CC3)c(=O)[nH]c2c1` (configuration not stated), the z-score came out at 0.483.

The compound `Cc1ccc(C(=O)N[C@H](C(=O)OCC(=O)NC2CCS(=O)(=O)C2)C(C)C)cc1` (some centres not stated) showed a z-score of -0.0806.

For the compound `CN(C)CCCNC(=O)c1cc2c3ccccc3n(C)c2s1`, the z-score is 0.817.

As for `Cc1c(Cl)ccc2c1NC(=O)[C@]21N[C@@H](Cc2ccccc2)[C@H]2C(=O)N(c3ccc(F)cc3)C(=O)[C@H]21`, the z-score was -0.433.

For `Brc1ccc2nc(CSc3ncn[nH]3)cn2c1`, the z-score is -0.0244.

`Cn1c(SCc2nc(-c3ccc(Br)cc3)no2)nnc1-c1ccco1`: the z-score was found to be 0.101.

Take `Cc1cc(Cl)c(OCCOCCN2CCCCC2)c(Br)c1`: the z-score amounted to 0.276.

The compound `C=CCNC(=O)c1onc(CSc2ccccc2CC)c1C(=O)O` came in with a z-score of -1.59.

`CC(C)NC(=O)c1ccc(Sc2ccccc2)c([N+](=O)[O-])c1` had a z-score of -0.477.

As to `O=C1NC(=O)/C(=C\c2ccccc2OCc2ccc([N+](=O)[O-])cc2)N1`, the z-score is -0.176.

The compound `CCCCCOc1ccc(CSC(=N)N)cc1[N+](=O)[O-]` came in with a z-score of 1.82.

Regarding `Cc1cc(C(=O)N/N=C/c2ccc(-c3ccccc3Cl)o2)n[nH]1`, the z-score was -0.496.

On to `CN1CCN(C(=O)c2ccc(CS(=O)(=O)c3c(Cl)cccc3Cl)o2)CC1`, for which the z-score amounted to 0.504.

In turn, `Cc1ccc(Cn2c(NCCc3ccccc3)nc3c2c(=O)n(C)c(=O)n3C)cc1` showed a z-score of -0.251.

On to `C=CCn1c(SCC(=O)NC(C)(C)C)nnc1-c1ccccc1O`, for which the z-score is -0.227.

On to `O=C(Nc1cccnc1)C1CC(c2ccc(Cl)c(Cl)c2)=NO1` (configuration not stated), for which the z-score is -0.465.

In the case of `COC(=O)c1cc(=O)nc2sc(-c3ccc(F)cc3)nn12`, the z-score is -0.167.

`O=C(Cn1nc(-c2ccc(N3CCOCC3)c([N+](=O)[O-])c2)c2ccccc2c1=O)N1CCCCC1` came in with a z-score of -0.108.

In the case of `COc1ccc(C2C(C(=O)NCCN3CCOCC3)c3ccccc3C(=O)N2C2CCCCC2)cc1` (configuration not stated), the z-score was -0.415.

With `Cc1ncc(CO)c(/C=N/N=C/c2ccccc2O)c1O`, the z-score is -0.291.

As for `Cc1ccc(C)c(-n2ccnc2SCC(=O)O)c1`, the z-score is -0.0351.

The compound `Cc1cccc2cc(CN(CCCO)C(=O)Nc3cccc(Cl)c3)c(=O)[nH]c12` showed a z-score of 0.85.

The compound `Cc1ccc(/C(N)=N/OC(=O)Cc2cccs2)cc1` registered a z-score of 0.139.

Regarding `Cc1cc(OCCN2CCCCC2)nc2ccccc12`, the z-score is 0.234.

Compound `CCC(c1nnnn1Cc1cccs1)N1CCN(C2CCCC2)CC1` (configuration not stated) displayed a z-score of -0.61.

The compound `Fc1ccc(CSc2nncn2NCc2ccc3c(c2)OCO3)cc1` displayed a z-score of -0.101.

`Cc1ccccc1N1CCN(C(=O)C2CCCCC2)CC1`: the z-score came to 0.284.

Take `CC1(C)Cc2c(sc3nc4n(c(=N)c23)CCCCC4)CO1`: the z-score is -0.582.

`CCOc1ccc(NC2=C(Cl)C(=O)N(C3CCCCC3)C2=O)cc1` registered a z-score of -0.288.

On to `Cc1ccc(C(C(=O)NC2CCCCC2)N(Cc2ccco2)C(=O)C2COc3ccccc3O2)o1` (configuration not stated), for which the z-score turned out to be 1.12.

Compound `Cc1cccc(NC(=O)CSc2nnc(-c3ccco3)c(-c3ccco3)n2)c1C` yielded a z-score of -0.415.

In turn, `CN(C)S(=O)(=O)c1ccc(C(=O)NCCOc2ccc(F)cc2)cc1` gave a z-score of 0.0591.

In the case of `OC(COc1ccc(Cl)cc1)CN1CCCCC1` (configuration not stated), the z-score turned out to be 0.433.

In the case of `CCC(Sc1nc(N)cc(N)n1)C(=O)O` (configuration not stated), the z-score was -0.198.

Turning to `O=C(NNC(=O)c1ccccc1Br)c1ccc(Cl)c(Cl)c1`, the z-score amounted to 0.926.

Compound `CC1CCN(S(=O)(=O)c2ccc(NC(=O)CN3CCN(C)CC3)cc2)CC1` displayed a z-score of 0.193.

In turn, `CN1/C(=C\C(=S)NC(=O)c2ccc([N+](=O)[O-])cc2)C(C)(C)c2ccccc21` had a z-score of 0.213.

In turn, `S=c1[nH]nc(-c2cccnc2)n1-c1ccccc1` yielded a z-score of 0.46.

In the case of `Cc1ccc(Cn2nnc3c(=O)[nH]c(C4CCN(S(=O)(=O)c5ccc(C)cc5)CC4)nc32)cc1`, the z-score is 0.0444.

Regarding `CCCCCSc1nc2c(c(=O)[nH]c(=O)n2C)n1C(C)C`, the z-score is -0.464.

As to `O=C(Nc1cccc(Cl)c1)N(CCCN1CCOCC1)Cc1ccccc1F`, the z-score is -0.357.

`O=C(Nc1cc(Sc2ccccn2)cc([N+](=O)[O-])c1)c1ccc(Cl)cc1` showed a z-score of -0.325.

Consider `CCOC(=O)CSc1n[nH]c(-c2ccco2)n1`, for which the z-score was -0.251.

On to `Cc1ccc(N=Cc2c(O)n(C)c(=O)n(C)c2=O)nc1`, for which the z-score is -0.0916.

`CCCn1c(=O)c(C(=O)NNS(=O)(=O)c2ccc(Cl)cc2)c(O)c2ccccc21`: the z-score came out at 0.127.

In turn, `COc1ccc(/C=N/NC(=O)C(=O)N2CCN(c3ccccc3OC)CC2)cc1` had a z-score of -0.0857.

In turn, `C=CCc1cccc(/C=N/NC(=O)CNc2ccccc2)c1O` gave a z-score of 0.231.

Compound `O=C(CN1N=C(c2ccccc2)CCC1=O)NCc1ccco1` showed a z-score of 1.01.

On to `Cc1ccc(C(NC(=O)NC(C)c2ccccc2)C(Cl)(Cl)Cl)cc1F` (configuration not stated), for which the z-score is -0.523.

As to `CN(CC(=O)Nc1cccc2ccccc12)C(=O)/C=C/c1cccs1`, the z-score was -0.0222.

For the compound `O=C(N/N=C1/CCCc2ccccc21)C(c1ccccc1)c1ccccc1`, the z-score was -0.174.

On to `CCC1CCCCN1C(=S)NCc1ccccc1` (configuration not stated), for which the z-score was -0.193.

`COc1ccc(Nc2nc(C)cc(C)c2C(N)=O)c(OC)c1` gave a z-score of -0.0437.

`CSC1=NCCN1C(=O)COc1ccccc1` came in with a z-score of -0.13.

The compound `Cc1ccc(-c2noc(CCC(=O)NCCc3ccccc3Cl)n2)cc1` displayed a z-score of -0.158.

The compound `Cc1onc(-c2ccccc2Cl)c1C(=O)N1CCN(c2ccccc2)CC1` gave a z-score of 0.279.

In turn, `Cc1ccc(-n2c(=S)[nH]c3nc4c(cc3c2=O)COC(C)(C)C4)cc1` had a z-score of -0.116.

Compound `Cc1nc(-c2cccc(-c3noc(C)n3)c2)no1` showed a z-score of -0.602.

With `COC(=O)C1CCN(C(c2ccc(OC)c(OC)c2)c2sc3nc(C)nn3c2O)CC1` (configuration not stated), the z-score is -0.0312.

For the origin of these results see PubChem BioAssay AID488969 (Vanderbilt High Throughput Screening Facility, 2010).
